Screen size: about 310,000 compounds; about 2,200 (0.71%) showed an effect of 50% or more. The effect is printed as a negative number. The list shows a part of the results.
The compounds below were run against human ether-à-go-go-related gene (hERG) potassium channel (human, UniProt Q12809) (assay: primary screen, population patch clamp on CHO cells stably expressing hERG).
Chain of human ether-à-go-go-related gene (hERG) potassium channel (Q12809 whole entry, looked up): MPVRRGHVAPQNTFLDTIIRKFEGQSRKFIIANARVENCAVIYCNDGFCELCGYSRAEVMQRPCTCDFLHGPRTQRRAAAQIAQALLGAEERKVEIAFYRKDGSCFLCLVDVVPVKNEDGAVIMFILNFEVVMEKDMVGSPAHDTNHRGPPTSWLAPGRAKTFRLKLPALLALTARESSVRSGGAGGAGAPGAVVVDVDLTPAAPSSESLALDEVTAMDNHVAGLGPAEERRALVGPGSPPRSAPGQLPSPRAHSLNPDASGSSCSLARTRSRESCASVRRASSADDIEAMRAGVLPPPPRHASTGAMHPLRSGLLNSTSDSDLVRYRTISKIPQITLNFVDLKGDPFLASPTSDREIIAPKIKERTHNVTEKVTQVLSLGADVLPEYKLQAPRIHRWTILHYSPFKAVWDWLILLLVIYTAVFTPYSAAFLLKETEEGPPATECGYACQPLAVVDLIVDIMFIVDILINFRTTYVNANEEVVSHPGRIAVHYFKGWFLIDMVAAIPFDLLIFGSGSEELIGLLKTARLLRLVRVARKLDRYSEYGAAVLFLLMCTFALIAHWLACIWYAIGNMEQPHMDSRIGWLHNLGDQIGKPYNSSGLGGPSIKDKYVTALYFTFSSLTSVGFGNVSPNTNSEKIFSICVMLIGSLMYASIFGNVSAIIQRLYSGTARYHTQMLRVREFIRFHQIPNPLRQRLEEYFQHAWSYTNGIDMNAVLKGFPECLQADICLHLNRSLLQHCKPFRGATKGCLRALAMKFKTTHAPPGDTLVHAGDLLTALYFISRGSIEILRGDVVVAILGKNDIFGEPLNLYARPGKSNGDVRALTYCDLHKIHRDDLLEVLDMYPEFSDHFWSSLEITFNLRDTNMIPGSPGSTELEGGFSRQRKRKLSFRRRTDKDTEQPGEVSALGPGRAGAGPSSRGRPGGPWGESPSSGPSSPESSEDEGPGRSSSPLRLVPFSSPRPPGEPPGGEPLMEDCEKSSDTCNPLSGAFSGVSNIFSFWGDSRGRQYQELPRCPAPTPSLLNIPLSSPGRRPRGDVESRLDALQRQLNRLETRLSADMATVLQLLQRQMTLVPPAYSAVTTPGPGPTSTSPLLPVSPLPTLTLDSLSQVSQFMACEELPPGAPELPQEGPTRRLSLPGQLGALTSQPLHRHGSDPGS
`Cc1ccc2cc(CN(CC(C)C)S(=O)(=O)c3ccccc3)c(=O)[nH]c2c1` was tested, and the “hERG current change (%, negative = inhibition) at 1uM” value was 19.6%.
With `O=S1(=O)C=C(Oc2ccc(F)cc2)c2ccccc21` the “hERG current change (%, negative = inhibition) at 1uM” value was -1.18%.
With `Cc1oc2cc(OCC(=O)O)ccc2c(=O)c1Oc1ccccc1` the “hERG current change (%, negative = inhibition) at 1uM” value was 11.3%.
`COc1cc(OC)cc(C(=O)NCC(C)NC(=O)c2cc(OC)cc(OC)c2)c1` (stereo not shown) was tested, and the “hERG current change (%, negative = inhibition) at 1uM” value was 9.69%.
With `O=C(NCC(=O)N(c1cccnc1)C(C(=O)NC1CCCCC1)c1cccnc1)c1ccco1` (stereo not shown) the “hERG current change (%, negative = inhibition) at 1uM” value was 4.67%.
In the case of `O=c1[nH]c(SCCOc2ccccc2)nc2ccccc12`, the “hERG current change (%, negative = inhibition) at 1uM” value is reported as -0.179%.
For `Cn1nc(C(F)(F)F)c(-c2ccc(Br)cc2)c1NC(=O)Nc1ccc(F)cc1F`, the “hERG current change (%, negative = inhibition) at 1uM” value was 10.9%.
`Cc1ccc(S(=O)(=O)NN=C2CCC(C(C)(C)C)CC2)cc1[N+](=O)[O-]` (stereo not shown) was tested, and the “hERG current change (%, negative = inhibition) at 1uM” value was 12.8%.
For `O=C(Nc1ccc(Cl)cc1)NC1CCCCC1Cc1ccco1` (stereo not shown), the “hERG current change (%, negative = inhibition) at 1uM” value was 4.96%.
With `O=C(CCCCCNC(=O)N1CCn2c1nc1ccccc12)N[C@H](Cc1ccccc1)C(=O)O` the “hERG current change (%, negative = inhibition) at 1uM” value was 6.26%.
`C=C1CCN([C@@H](CC(C)C)C(=O)N2CCOCC2)S(=O)(=O)c2ccccc21` was tested, and the “hERG current change (%, negative = inhibition) at 1uM” value was 18.4%.
`OC1(c2cccc(F)c2)CCN(Cc2ccncc2)CC1` was tested, and the “hERG current change (%, negative = inhibition) at 1uM” value was -0.518%.
For `CC1=NNC(=O)C(CC(=O)Nc2ccc(Cl)c(Cl)c2)C1` (stereo not shown), the “hERG current change (%, negative = inhibition) at 1uM” value was -4.82%.
With `CC(C1CC2CCC1C2)n1c(-c2cccs2)n[nH]c1=S` (stereo not shown) the “hERG current change (%, negative = inhibition) at 1uM” value was 8.52%.
`Cc1nn(C)cc1CNC(=O)C1C2CCC(O2)C1C(=O)O` (stereo not shown) was tested, and the “hERG current change (%, negative = inhibition) at 1uM” value was 18.3%.
With `O=C(NCc1ccccc1)C(C(=O)c1ccc(F)cc1)n1ccccc1=O` (stereo not shown) the “hERG current change (%, negative = inhibition) at 1uM” value was 8.23%.
For `CCOC(=O)Cn1c(N2CCCCCC2)nc2c1c(=O)[nH]c(=O)n2C`, the “hERG current change (%, negative = inhibition) at 1uM” value was 12.2%.
For `CC(C(=O)O)N1C(=O)/C(=C/C=C/c2ccco2)SC1=S` (stereo not shown), the “hERG current change (%, negative = inhibition) at 1uM” value was 6.3%.
`O=C(N/N=C/c1ccccc1O)C1CC(=O)N(c2ccc(F)cc2)C1` (stereo not shown) was tested, and the “hERG current change (%, negative = inhibition) at 1uM” value was 3.42%.
`CCOC(=O)C1=C(C)NC(SCc2cc(=O)[nH][nH]2)=C(C#N)C1c1cccs1` (stereo not shown) was tested, and the “hERG current change (%, negative = inhibition) at 1uM” value was 13.7%.
In the case of `COc1ccc(CCNC2=C(Cl)C(=O)N(CCc3ccc(OC)c(OC)c3)C2=O)cc1OC`, the “hERG current change (%, negative = inhibition) at 1uM” value is reported as 9.08%.
`Cc1cc(C)c(NC(=O)C2CCCO2)c(C)c1` (stereo not shown) was tested, and the “hERG current change (%, negative = inhibition) at 1uM” value was 12.9%.
In the case of `Cn1c(=O)cc(OCCCC(=O)Nc2ccccn2)c2ccccc21`, the “hERG current change (%, negative = inhibition) at 1uM” value is reported as 3.49%.
For `COC(=O)c1cc2ccsc2n1CC(=O)NCC1CCCO1` (stereo not shown), the “hERG current change (%, negative = inhibition) at 1uM” value was 8.07%.
`CCc1ccccc1NC(=O)N[C@@H](C)C(=O)O` was tested, and the “hERG current change (%, negative = inhibition) at 1uM” value was -0.333%.
`Clc1cccc(COn2c(-c3ccc(Cl)cc3Cl)nc3ncccc32)c1` was tested, and the “hERG current change (%, negative = inhibition) at 1uM” value was 9.23%.
`O=C(NCCN1CCCC1=O)C1CCC(=O)N(CCc2ccc(Cl)cc2)C1` (stereo not shown) was tested, and the “hERG current change (%, negative = inhibition) at 1uM” value was -5.26%.
For `COc1cc(NC(=O)c2oc3ccccc3c2C)ccc1NC(=O)c1ccco1`, the “hERG current change (%, negative = inhibition) at 1uM” value was 15.6%.
`CCOC(=O)C1=C(COC(=O)c2cccc(N(C)C)c2)NC(=O)NC1C` (stereo not shown) was tested, and the “hERG current change (%, negative = inhibition) at 1uM” value was 13.8%.
`CN(/N=C/c1cccnc1)c1cnn(-c2ccc(F)c(Cl)c2)c(=O)c1Cl` was tested, and the “hERG current change (%, negative = inhibition) at 1uM” value was 3.74%.
`CCOC(=O)C1CCCN(C(=O)COc2ccc(N(C)S(=O)(=O)c3ccc(F)cc3)cc2)C1` (stereo not shown) was tested, and the “hERG current change (%, negative = inhibition) at 1uM” value was -25.1%.
With `Cc1nc(NC(=O)CN2CCOCC2)sc1-c1ccccc1` the “hERG current change (%, negative = inhibition) at 1uM” value was 7.04%.
In the case of `COC(=O)c1ccc(N2CCN(C)CC2)c(NC(=O)c2cccs2)c1`, the “hERG current change (%, negative = inhibition) at 1uM” value is reported as 11.9%.
For `CCn1c(=O)cc(SCC(=O)NCCCN2CCN(c3ccc(F)cc3)CC2)c2ccccc21`, the “hERG current change (%, negative = inhibition) at 1uM” value was -6.48%.
For `C/C(=N\N=C(/N)SC1CC(=O)N(c2ccc(Br)cc2)C1=O)c1cccs1` (stereo not shown), the “hERG current change (%, negative = inhibition) at 1uM” value was -0.809%.
For `O=C(O)c1cccnc1SCCc1ccccc1`, the “hERG current change (%, negative = inhibition) at 1uM” value was 2.26%.
`CCN(C(=O)c1ccc2c(OC)n(CC)nc2c1)c1ccc(OC)cc1` was tested, and the “hERG current change (%, negative = inhibition) at 1uM” value was 0.888%.
In the case of `C/C(=N\NC(=O)C(C)Sc1ccccc1)C(C)(C)C` (stereo not shown), the “hERG current change (%, negative = inhibition) at 1uM” value is reported as 4.08%.
With `O=C(Nc1ccc(Oc2ccc(NC(=O)Nc3ccc([N+](=O)[O-])cc3)cc2)cc1)Nc1ccc([N+](=O)[O-])cc1` the “hERG current change (%, negative = inhibition) at 1uM” value was 15.7%.
In the case of `CCCCn1c(N)c(N(CCOC)C(=O)c2ccc(C)o2)c(=O)[nH]c1=O`, the “hERG current change (%, negative = inhibition) at 1uM” value is reported as 11.7%.
With `COc1ccccc1NC(=O)C(=O)N(c1cccnc1)C(C(=O)NC(C)(C)C)c1ccccc1` (stereo not shown) the “hERG current change (%, negative = inhibition) at 1uM” value was -5.38%.
With `Cc1ccc(C)c(NC(=S)NCCN(C2CCCCC2)C2CCCC2)c1` the “hERG current change (%, negative = inhibition) at 1uM” value was -25.4%.
`CCc1nc2cc3sc(CC)nc3cc2s1` was tested, and the “hERG current change (%, negative = inhibition) at 1uM” value was 3.35%.

Reference: PMC4336329 (PLoS ONE, 2015)
